Screen size: about 150,000 compounds; about 540 (0.36%) showed an effect of 50% or more. The list shows a part of the results.

This assay deals with Plasmodium falciparum. Put plainly: Primary screen in NF54 nanoGlo assay, in single point, at 2uM, 72h; a lower Z score goes with more inhibition. It counts as functional, Erythrocyte. The following applies: timepoint 72 hour.
As a reminder, the % Inhibition is the change of the read-out against control, counted positive when it falls. For the molecule `CC(C)c1ccc(N2C(=O)[C@H](CC(=O)NCc3cccnc3)N=C2O)cc1`, the “% Inhibition” value was -8% and the Z score is 1.08.

Consider `CN(Cc1ncon1)C(=O)c1ccc2c(c1)OCC(=O)N2`, for which the “% Inhibition” value was -8% and the Z score is 0.76.

Take `CN(C)S(=O)(=O)N1CCC(CCc2nc(C3CCOCC3)no2)CC1`: the “% Inhibition” value was -6% and the Z score was found to be 0.87.

With `COc1ccc(CC(=O)N2CCN(c3nc(C)cc(N4CCCC4)n3)CC2)cc1`, the “% Inhibition” value is given as -7% and the Z score was determined as 1.39.

For the molecule `CCOC1CC(O)(CNc2nc(OC)ncc2Cl)C1(C)C` (stereo unspecified), the “% Inhibition” value was 0% and the Z score is given as -0.06.

Take `CCC(C)C(OC)C(=O)Nc1ccc(C)nc1O` (stereo unspecified): the “% Inhibition” value is -8% and the Z score amounted to 1.34.

In the case of `Cc1ccccc1C(=O)Nc1ccc2c(n1)CCC2`, the “% Inhibition” value is given as -15% and the Z score was determined as 2.52.

As to `CC1CCCC(Cn2cnc(C#N)c2C#N)C1` (stereo unspecified), the “% Inhibition” value is given as -3% and the Z score was 0.41.

With `Cc1ccc(CN(Cc2ccc(F)cc2)C(=O)CN(C(=O)Nc2ccccc2)C2CC2)o1`, the “% Inhibition” value is reported as -2% and the Z score came out at 0.42.

Consider `CCc1ccc2occ(Cc3ncnn3CCO)c2c1`, for which the “% Inhibition” value was -8% and the Z score is on record as 1.51.

As for `CC(C)NS(=O)(=O)N1CCC(C(=O)N(Cc2ccccc2)C2CC2)CC1`, the “% Inhibition” value was -8% and the Z score came to 1.24.

In the case of `CN1CCc2ncnc(NCc3cccc(-c4ccccn4)n3)c2C1`, the “% Inhibition” value is -8% and the Z score is 1.68.

On to `O=C(Nc1ccccc1C(=O)N1CCCCC1)c1ccco1`, for which the “% Inhibition” value is listed as -13% and the Z score is on record as 1.73.

As to `CCCN1CCN(C(=O)c2cc(-c3ccccc3)n[nH]2)[C@H]2CS(=O)(=O)C[C@H]21`, the “% Inhibition” value is 6% and the Z score is given as -0.8.

On to `CCc1nnc2c(NCCCN3CCN(c4cccc(Cl)c4)CC3)nc3ccccc3n12`, for which the “% Inhibition” value is listed as -9% and the Z score is given as 1.43.

On to `CCOC(=O)c1cnn(-c2nc3ccccc3[nH]2)c1CN1C[C@@H](C)O[C@@H](C)C1`, for which the “% Inhibition” value is -3% and the Z score was determined as 0.39.

On to `O=C(Cn1c(C(=O)NCc2ccc(F)cc2F)cccc1=O)NCc1ccco1`, for which the “% Inhibition” value is recorded as 0% and the Z score was -0.05.

In the case of `CCCn1cc(CNC(=O)N2CCN(c3ccccc3)C(=O)[C@@H]2C)cn1`, the “% Inhibition” value is -11% and the Z score turned out to be 1.31.

As to `O=C(CN1C(=O)COc2ccc(S(=O)(=O)N3CCCC3)cc21)N1CCCCCC1`, the “% Inhibition” value was found to be 3% and the Z score was -0.53.

For the molecule `Cc1cc(C)cc(CCNC(=O)C2([C@]3(O)CCCNC3)CCC2)c1`, the “% Inhibition” value is listed as -2% and the Z score is 0.45.

Take `O=C(CCn1cnnn1)N1CCC2(CCC(=O)N(CCc3cccnc3)C2)CC1`: the “% Inhibition” value came out at 2% and the Z score is reported as -0.41.

Consider `CC(NC(=O)c1ccoc1)C(=O)N1CC2C(C1)C2(C)C` (stereo unspecified), for which the “% Inhibition” value is -13% and the Z score is recorded as 1.06.

As to `O=C(NCc1nc(-c2cc[nH]c(=O)c2)no1)c1ccccn1`, the “% Inhibition” value is on record as -6% and the Z score came out at 1.06.

For `C1CCC2(C1)CCC(CNC1CCCC13CCOCC3)O2` (stereo unspecified), the “% Inhibition” value is -9% and the Z score is 0.79.

Consider `O=C(NC[C@H]1CCCC1(F)F)c1ccoc1`, for which the “% Inhibition” value is -8% and the Z score is reported as 1.59.

For the molecule `COC(=O)[C@@H](C)CN(Cc1ccccc1)C(=O)c1oc(C)nc1C`, the “% Inhibition” value was found to be 6% and the Z score is listed as -0.64.

For the molecule `COc1ccccc1C(=O)Nc1cc(-c2ccco2)no1`, the “% Inhibition” value was -19% and the Z score was 3.32.

`CC(C)(C)NC(=O)NCCc1csc(-n2cccn2)n1`: the “% Inhibition” value is reported as 3% and the Z score is on record as -0.51.

For `COc1ccc2c(c1)N(Cc1cnc3ncccn13)C[C@H](C)O2`, the “% Inhibition” value is -10% and the Z score came to 1.03.

Regarding `Cn1ncc(C(F)(F)F)c1C(=O)N1c2ccccc2C[C@@H]1CN`, the “% Inhibition” value stood at 4% and the Z score is on record as -0.87.

With `c1cncc(CNc2nnc(CC3CCCC3)o2)c1`, the “% Inhibition” value is -9% and the Z score was found to be 1.04.

Turning to `Cc1ccccc1Cn1nc(-c2ccc(F)cc2)c(C)c1-c1ccc(F)cc1`, the “% Inhibition” value was 4% and the Z score is -0.58.

In the case of `Cc1cc(C)nc(NC(=O)c2ccc3c(c2)OCO3)n1`, the “% Inhibition” value is listed as -30% and the Z score is given as 3.54.

As for `O=C(OCC(F)(F)F)N1CCC[C@@H]1c1ccon1`, the “% Inhibition” value is -1% and the Z score is given as 0.25.

For `COCCN1C[C@]2(CCCN(C(=O)Cn3ccccc3=O)C2)CCC1=O`, the “% Inhibition” value is recorded as -15% and the Z score amounted to 2.05.

Take `Cc1nc(-c2ncc(C(=O)N(C)Cc3snnc3C)c(O)n2)cs1`: the “% Inhibition” value is recorded as -1% and the Z score is on record as 0.2.

As for `CCCc1nsc(NC(=O)Cc2ccsc2)n1`, the “% Inhibition” value is given as -47% and the Z score was determined as 5.54.

For the molecule `Cc1cccc(Cc2c(C)nc(C3CC3)nc2N2CCN(S(C)(=O)=O)CC2)c1`, the “% Inhibition” value was -6% and the Z score is given as 0.99.

Regarding `Cc1nc2ccccc2n1CCNC1CCCC1Cc1cnn(C)c1` (stereo unspecified), the “% Inhibition” value is listed as -3% and the Z score turned out to be 0.45.

Consider `O=C(COc1ccccc1Cl)Nc1ccc(C2(c3ccc(NC(=O)COc4ccccc4Cl)cc3)c3ccccc3-c3ccccc32)cc1`, for which the “% Inhibition” value was 38% and the Z score was -1.02.

Consider `O[C@@H]1COCCN(c2ncnc3c2Cc2ccccc2OC3)C1`, for which the “% Inhibition” value is on record as 1% and the Z score is on record as -0.22.

With `Cc1cccc(-n2c(=O)n(Cc3ccccc3)c(=O)c3c2ncn3Cc2ccccc2F)c1`, the “% Inhibition” value is on record as -16% and the Z score is on record as 1.51.

On to `O=C(NC[C@H]1CCCO1)C1CCN(C2CCN(C3Cc4ccccc4C3)CC2)CC1`, for which the “% Inhibition” value was -6% and the Z score stood at 1.18.

Source of the values: ChEMBL document CHEMBL4888484, “Replenishing the malaria drug discovery pipeline: Screening and hit evaluation of the MMV Hit Generation Library 1 (HGL1) against asexual blood stage Plasmodium falciparum ,using a nano luciferase reporter read-out” (2022).
